Test results from paper PMC6919601, “Identification of Plasmodium dipeptidyl aminopeptidase allosteric inhibitors by high throughput screening” (PLoS ONE, 2019).
About 230 (0.21%) of roughly 110,000 compounds showed an effect of 50% or more. Some of the results follow.

Target: DPAP1 (Plasmodium falciparum, UniProt Q8IIJ9)
Test: primary screen, percent inhibition; read by cleavage of a fluorogenic dipeptide substrate; higher = more effect of the substance
Design: species or system P. falciparum D10 trophozoite lysates; single well
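Note: 30 min substrate incubation versus DMSO and 10 µM JCP410 controls.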

Sequence of DPAP1 (Q8IIJ9 whole entry, looked up): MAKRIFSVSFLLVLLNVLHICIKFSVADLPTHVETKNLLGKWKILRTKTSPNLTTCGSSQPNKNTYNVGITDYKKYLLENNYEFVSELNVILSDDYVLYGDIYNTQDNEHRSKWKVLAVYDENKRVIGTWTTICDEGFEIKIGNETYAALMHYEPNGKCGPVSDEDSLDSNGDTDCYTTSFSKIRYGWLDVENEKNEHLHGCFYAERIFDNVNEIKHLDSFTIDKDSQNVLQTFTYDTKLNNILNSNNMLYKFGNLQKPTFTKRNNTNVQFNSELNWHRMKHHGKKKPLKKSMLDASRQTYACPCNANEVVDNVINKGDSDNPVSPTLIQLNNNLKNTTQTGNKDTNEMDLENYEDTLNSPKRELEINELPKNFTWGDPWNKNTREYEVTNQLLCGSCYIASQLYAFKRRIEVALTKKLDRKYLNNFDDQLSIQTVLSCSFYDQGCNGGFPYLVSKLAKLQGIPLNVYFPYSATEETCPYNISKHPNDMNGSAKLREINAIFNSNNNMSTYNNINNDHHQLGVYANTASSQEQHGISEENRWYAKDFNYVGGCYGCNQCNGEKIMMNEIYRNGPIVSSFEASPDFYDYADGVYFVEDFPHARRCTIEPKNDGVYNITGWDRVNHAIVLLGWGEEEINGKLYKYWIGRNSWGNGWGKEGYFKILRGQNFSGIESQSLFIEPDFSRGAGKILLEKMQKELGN

Row | SMILES | % Inhibition @ 10 uM [%]
1 | COc1cc(/C=C2\C(=N)N3N=C(S(C)(=O)=O)SC3=NC2=O)ccc1OCc1ccc(C)cc1 | -7.21
2 | O=C(C1CCCN(S(=O)(=O)c2ccc(Br)s2)C1)N1CCc2ccccc2C1 (stereo not shown) | -5.88
3 | CCN1CCCC1CNC(=O)CCCn1nc(C)n2c(cc3sccc32)c1=O (stereo not shown) | 1.8
4 | COc1ccc(C(=O)Nc2cc(Cl)ccc2O)cc1Cl | -7.83
5 | COc1ccc2nc(NC(=O)CSc3nc(C)cc(C)n3)sc2c1 | -3.9
6 | CN(C)c1ccc(/C=C2\NC(=O)c3ccccc3C2=O)cc1 | 8.95
7 | CC(NC(=O)Cn1nc(C(F)(F)F)c2c1CCC2)c1ccccc1 (stereo not shown) | -4.62
8 | Cc1ccc(C(=O)NCCN2CCCC2)cc1 | -1.78
9 | CC(C)C(NC(=O)c1ccc(-c2csc(N=C(N)N)n2)cc1)C(=O)NCC#N (stereo not shown) | -0.778
10 | CC(=O)NS(=O)(=O)c1ccc(NC(=O)C2(c3ccccc3)CCOCC2)cc1 | 3.17
11 | O=C1OC(c2cccc3ccccc23)=N/C1=C/c1ccc2c(c1)OCO2 | -2.18
12 | Cc1cc2c(c(=O)n1Cc1cccnc1)C(c1ccc(F)cc1)C(C#N)=C(N)O2 (stereo not shown) | -4.78
13 | CC1=C(C(=O)OCc2ccccc2)C(c2ccc(Cl)c(Cl)c2)NC(=O)N1 (stereo not shown) | -2.87
14 | Cc1ccccc1Cn1nc(C)c(NC(=O)CCn2cc(Br)cn2)c1C | -3.71
15 | O=S(=O)(c1cc(Cl)ccc1Br)N1CCOCC1 | -4.18
16 | Cc1ccc2nc(N(CCN(C)C)C(=O)COc3ccccc3)sc2c1 | -5.01
17 | COc1ccc(CCNC(=O)/C(C#N)=C/c2ccc(C)o2)cc1OC | 2.57
18 | CCC(Cc1ccccc1)NC(=O)Cn1cc2c(n1)CCC(C)C2 (stereo not shown) | 3.4
19 | COc1ccc(-c2nonc2NC(=O)c2ccc(F)cc2)cc1OC | 2.29
20 | O=C(O)c1cccc(NC2=C(Cl)C(=O)N(c3cc(Cl)ccc3Cl)C2=O)c1 | -3.46
21 | CC1=C(C#N)C(c2ccc(Cl)cc2Cl)C2=C(O)CC(C)(C)CC2=N1 (stereo not shown) | 18
22 | COc1c(Cl)cc(-c2noc(C)c2C(=O)NC(C)C)cc1Cl | 1.27

Row | SMILES | % Inhibition @ 10 uM [%]
23 | CC(NS(=O)(=O)c1ccc(OCC(=O)Nc2cccc3ccccc23)cc1)c1ccccc1 (stereo not shown) | 1.7
24 | N#CCNC(=O)C(Cc1c(F)cccc1F)NC(=O)c1cc(-c2ccccc2)c(-c2ccccc2)s1 (stereo not shown) | -1.82
25 | N#CCCN1C(=O)c2ccccc2C1=O | -4.64
26 | CC(C)CCNS(=O)(=O)c1ccc2nc(O)oc2c1 | 7.53
27 | CC(C(=O)N1CCCCCC1)n1sc2ccccc2c1=O (stereo not shown) | -4.59
28 | CCCCc1c(O)nc2ccc(OC)cc2c1O | 16.7
29 | COc1ccc(S(=O)(=O)N2CCN(C/C=C/c3ccccc3)CC2)c2ccccc12 | -4.33
30 | O=C(c1cnn(-c2ccccc2)c1-n1cccc1)N1CCN(Cc2ccc3c(c2)OCO3)CC1 | 0.137
31 | C=CCn1c(SCC(=O)NC(N)=O)nc2sc3c(c2c1=O)CCCC3 | 2.38
32 | CCOC(=O)C1=C(C)N=c2s/c(=C\c3ccc(Cl)cc3)c(=O)n2C1c1ccccc1F (stereo not shown) | 1.84
33 | COc1ccccc1N1CCN(S(=O)(=O)c2ccc(C)cc2)CC1 | -4.35
34 | COc1ccc(C2C3=C(CC(C)(C)CC3=O)OC3=C2C(=O)CC(C)(C)C3)cc1Br | -3.92
35 | Cc1ccc(/N=c2/sc(C)c(C)n2C)cc1 | -4.16
36 | CC(C)(C)c1ccc(C(=O)Nc2ccccc2Cl)cc1 | -0.546
37 | CCc1sc(NC(=O)CCCC(=O)O)nc1-c1ccccc1 | -0.99
38 | Cc1nc2cc(NC(=O)NC3CCCCC3)ccc2o1 | -5.23
39 | COc1ccc(NC(=O)CC(C)(C)C)cc1Cl | 7.45
40 | CC1CN(C(=O)C(C(=O)N2CC(C)c3ccccc32)C23CC4CC(CC(C4)C2)C3)c2ccccc21 (stereo not shown) | 1.88
41 | O=C(c1cccc(COc2ccc(Cl)cc2Cl)c1)N1CCOCC1 | 0.413
42 | Cc1ccc(C2CCN(C(=S)NCc3ccccc3)C2)cc1 (stereo not shown) | 0.718
43 | O=C(NCc1cccnc1)[C@H](Cc1ccccc1)N1Cc2ccccc2C1=O | 4.54
44 | CC(C)C[C@H](NC(=O)c1ccc(OC(F)F)cc1)C(=O)NCC#N | 3.19

Row | SMILES | % Inhibition @ 10 uM [%]
45 | COc1ccc(N2CCN(C(=O)C(C)Oc3ccccc3)CC2)cc1 (stereo not shown) | 0.205
46 | CCc1ccc(CNCc2cccnc2)cc1 | 1.37
47 | COCc1cc(O)nc(SCC(=O)Nc2ccc(Br)cc2)n1 | -6.69
48 | CCOc1ccc(/C=N/c2sc3c(c2C#N)CCCC3)cc1 | -3.48
49 | Cc1cc(C)cc(OCC(O)CN2CCCCC2)c1 (stereo not shown) | 1.29
50 | Cc1ccc2[nH]c(C3=C(N)N(C(C)c4ccccc4)CC3=O)nc2c1 (stereo not shown) | -1.22
51 | Cc1ccc(S(=O)(=O)NC(C)C(=O)Nc2ccc(F)cc2)cc1 (stereo not shown) | -5.49
52 | CCOC(=O)c1nnn(-c2nc(N)nc(N(C(C)C)C(C)C)n2)c1-c1ccccc1 | -2.28
53 | O=C(O)CCCCCNC(=O)c1ccncc1 | -1.52
54 | CC(C)Cn1c(=O)c2sccc2n2c(CCCC(=O)O)nnc12 | -3.85
55 | COC(=O)C1=CN(CCc2ccc(OC)cc2)C=C(C(=O)OC)C1c1cccs1 | 3.47
56 | Cn1nc(C(=O)N2CCN(Cc3ccccc3)CC2)c2c1-c1ccccc1S(=O)(=O)C2 | -1.38
57 | CCN(CC)C(=O)Cn1cc(S(=O)(=O)Cc2ccccc2)c2ccccc21 | 3.51
58 | CSc1nc(N)nc(SCC(=O)Nc2ccc(C)cc2)c1C#N | -2.8
59 | O=C1N=C(c2ccc(O)cc2)NC2Oc3ccc4ccccc4c3C=C12 (stereo not shown) | 1.68
60 | COc1ccc(C(=S)N2CCOCC2)cc1 | 1.29
61 | COc1ccc(C(=O)Nc2ccc(S(=O)(=O)NC(C)(C)C)cc2)c(OC)c1 | -4.21
62 | Cc1cc(C)n2nc(NC(=O)COc3ccc(Cl)cc3C)nc2n1 | 0.401
63 | Cc1cc(OCC(=O)Nc2ccc(C(C)C)cc2)ccc1Br | -1.25
64 | O=C(NC1CCCC1)C1CCCN(c2cnccn2)C1 (stereo not shown) | -4.67
